Among all 140,000 compounds or so, about 240 (0.17%) were called active. The shares of active, inactive and inconclusive entries below differ from those in the screen. Calls follow the shape of the dose curve; as a rule, active = well fitted inhibition curve with a large enough effect; inconclusive = small, poorly fitted or top-dose-only effect; inactive = no such curve, though single readings can be large or run the other way. Potencies beside an inconclusive call are fits to weak or partial responses and may not hold up.
Assay: Primary qHTS assay for inhibitors of alpha-synuclein gene (SNCA) expression; also: nearly all actives have a fitted effect of over 45% in size;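 as to activity change, negative = inhibition: plate controls were DMSO cells for no effect and cell-free wells for full effect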
Settings: HEK-293 SNCA-luciferase knock-in, luminescence, 24 h; activity change, negative = inhibition: at 57.2 µM (top of the series) unless noted
Potency is read from the fitted curve at half-maximal effect; tags tell the direction and shape of the fitted curve.

Activity change, negative = inhibition, inactive:
CC(CCc1ccccc1)NC(=O)CN1C(=O)NC(c2ccc(Cl)cc2)C2=C1COC2=O (configuration not stated) -20.6%
CCc1nc2c(c(-c3ccc(O)cc3)n1)CN(C(=O)c1ccc(OC)cc1)CC2 45%
O=C(NC1CCN(c2cc(-c3ccccc3)[nH]n2)CC1)c1ccc(Cl)cc1 0.61%
Cc1ccccc1NC(=O)C1CCc2nc(N3CCN(C(=O)C(C)C)CC3)sc2C1 (configuration not stated) 13.9%
O=C(c1cccc(F)c1)N1CCC2(CC1)CC(N(Cc1ccc(F)cc1)C1CC1)CCO2 (configuration not stated) 22%
CCc1ccc(CNC(=O)C2CCN(C(=O)c3ncn4c3COC(c3ccc(F)cc3)C4)CC2)cc1 (configuration not stated) -16.2%
CC(C)c1noc([C@@H]2C[C@H](NS(=O)(=O)Cc3ccccc3)CN2C)n1 11.1% [at 87.6 µM]
CC(C)(C)c1ccc(C(=O)NCc2nnc3c(-c4nc(C5CC5)no4)cccn23)cc1 1.26%
CC(C)c1noc(-c2cccn3c(CNC(=O)c4ccc(F)cc4Cl)nnc23)n1 -22.6%
O=S(=O)(N[C@H]1CO[C@H]2[C@@H]1OC[C@@H]2Nc1nccc(-c2cccs2)n1)c1cccs1 -17.4%
CCc1nc(C)cc(-c2cc(OC)c(OC)c(OC)c2)n1 17.3%
COc1cccc(-c2cc(C(=O)O)cc(S(=O)(=O)N3CCSCC3)c2)c1 -17.9%
COc1ccccc1CCNC(=O)c1nc2cccnc2n(-c2ccccc2OC)c1=O 12%
CC(=O)Nc1ccc(NC(=O)CSc2nccn2C)cc1 34%
Cc1cc(C(=O)N(Cc2ccncc2)Cc2cccc(OCCc3ccc(F)cc3)c2)n(C)n1 -19.9%

Potency, inconclusive:
COc1cccc(-c2cc(-c3nc(C4CC(=O)N(C5CCCCC5)C4)no3)[nH]n2)c1 (configuration not stated) 39.8 µM [inhibitor, single point]
COc1ccccc1CNC(=O)c1cc2c(s1)CCN(C(=O)c1ccccc1)C2 2.82 µM [inhibitor, full curve, poor fit]
COc1ccc(Cl)cc1C(=O)NC1CCN(c2cc(C(F)(F)F)nc(C)n2)CC1 0.708 µM [inhibitor, full curve, poor fit]
C[S+](=O)([O-])c1ccc(-c2nc(C(=O)N3CCCC3)n3ccncc23)cc1 3.55 µM [inhibitor, partial curve, poor fit]
CN(c1ccccc1)c1cc(=O)c2ccnc(-c3ccnn3C)c2o1 5.62 µM [inhibitor, full curve]
COc1ccc(NC(=O)[C@@H]2C[C@@H](c3cccc(C(F)(F)F)c3)N(C)C2)cc1OC 39.8 µM [inhibitor, single point]
CCCCOc1ccc(C(=O)N2CCC[C@H]2c2nc(-c3ccccc3Cl)no2)cc1 22.4 µM [inhibitor, single point]
COc1cccc(-c2ccc(CN3CCCC3C(=O)NCc3ccc(C(F)(F)F)cc3)cc2)c1 (configuration not stated) 39.8 µM [inhibitor, single point]
CCN(C(=O)CCn1cnc2onc(-c3ccc(F)cc3)c2c1=O)c1ccc(OC)cc1 17.8 µM [inhibitor, partial curve, poor fit]
COc1ccc(CN2CCC3(C2)C(=NC2CCCCC2)NC(=O)N3c2cccnc2)cc1 (configuration not stated) 28.2 µM [inhibitor, single point]
CCN(CC)C(=O)c1sc2c(c1C)c(=O)n(Cc1ccccc1)c(=O)n2Cc1ccc(Cl)cc1 20 µM [inhibitor, single point]
O=C(Nc1cccc(Cl)c1)c1cnc2c(c1)N(C(=O)CCc1ccccc1)CCC2 28.2 µM [inhibitor, single point]
CC(=O)c1cccc(NC(=O)c2c(N3CCCC3=O)c3cc(F)ccc3n2C)c1 28.2 µM [inhibitor, single point]
C[C@H](C(=O)N(C)CCC#N)C1CC[C@@]2(C)Cc3sc(NC(=O)c4cccn4C)nc3[C@@H](C)[C@@H]2[C@H]1O (some centres not stated) 3.55 µM [inhibitor, full curve, poor fit]
CCOc1ccc2c(n1)CCN(C(=O)c1ccsc1)C2 39.8 µM [inhibitor, single point]
Cc1cccc(N2CCN(C(=O)c3cnn(-c4cccc(Cl)c4C)c3C3CCNCC3)CC2)c1C 22.4 µM [inhibitor, single point]
CC(C)(C)CC(=O)N[C@H]1C[C@@H](Cc2cc(COc3ccccc3)on2)C1(C)C 31.6 µM [inhibitor, partial curve, poor fit]
O=C(NCC(c1cccnc1)N1CCc2ccccc2C1)C(=O)Nc1ccc(Cl)cc1 (configuration not stated) 22.4 µM [inhibitor, single point]
Cc1ccc(-c2noc(CSc3nnc(Cc4ccccc4)n3-c3cccc(C)c3)n2)cc1 7.08 µM [inhibitor, single point]
N#Cc1ccc(CNC2(Cc3cc(CN4CCN(c5ccccc5)CC4)on3)COC2)cc1 39.8 µM [inhibitor, single point]
O=C(C1CCCN1[S+](=O)([O-])c1cccc(C(F)(F)F)c1)N1CCC(c2ccccc2)CC1 (configuration not stated) 39.8 µM [inhibitor, partial curve, poor fit]
CCCC[C@H](N)C(=O)N1CCC2(CC1)CC(=O)N(Cc1cc(F)cc(F)c1)C2 3.16 µM [inhibitor, single point]
O=C1Cc2c(-c3ccccc3)n[nH]c2CN1CC1CCOCC1 56.2 µM [inhibitor, single point]
O=C1N(CCc2ccccc2)c2ccccc2C12CCN(CC1CC1)C2 (configuration not stated) 31.6 µM [inhibitor, single point]
CCOC(=O)C[C@@H]1C[C@@H](C(C)C)[C@H](CNS(=O)(=O)c2ccccc2)C=C1C 31.6 µM [inhibitor, single point]
COc1cc(OC)cc(C(=O)NC2CCN(c3cc(-c4cccs4)[nH]n3)C2)c1 (configuration not stated) 31.6 µM [inhibitor, single point]
O=C(Cn1c(-c2cccs2)cc2ccccc21)NCCc1ccc(Cl)cc1 20 µM [inhibitor, single point]
Cc1ccc(CNS(=O)(=O)c2cc3c(cc2C)NC(=O)CO3)cc1 39.8 µM [inhibitor, single point]
Cc1cncn1CCc1nc2c3ccccc3nc(SCC(=O)Nc3cccc(Cl)c3)n2n1 15.8 µM [inhibitor, single point]
OC[C@@H]1CNC[C@H]1C1CCN(Cc2cccc(Cl)c2)CC1 39.8 µM [inhibitor, single point]
Clc1ccc(C2Cn3nnc(-c4noc(COc5ccccc5)n4)c3CO2)cc1 (configuration not stated) 3.16 µM [inhibitor, full curve, poor fit]
Cc1nc(CN2Cc3nc(-c4cccc(C(F)(F)F)c4)ccc3OCC2=O)cs1 15.8 µM [inhibitor, partial curve, poor fit]
Cc1ccccc1OCC(O)Cn1c(=N)n(CCN2CCCCC2)c2ccccc21 (configuration not stated) 39.8 µM [inhibitor, single point]
CC(C)COc1ccc(C(=O)N(Cc2ccc(N(C)C)cc2)Cc2ccco2)cc1 28.2 µM [inhibitor, single point]
COc1ccc(C(=O)N2CCCC(CO)CCNC(=O)CC2)cc1 (configuration not stated) 12.6 µM [inhibitor, partial curve, poor fit]
O=C1NC(=NC2CCCC2)C2(CCCN(CC3CCCCC3)C2)N1c1cccnc1 (configuration not stated) 39.8 µM [inhibitor, single point]
O=C(c1ccccc1)N1CCN(C(=O)c2nc3cccnc3n(CCc3ccccc3)c2=O)CC1 15.8 µM [inhibitor, partial curve]
Cc1ccccc1CCC1CCCN(S(C)(=O)=O)C1 (configuration not stated) 7.08 µM [inhibitor, single point]
COC(=O)c1ccccc1NC(=O)c1c(NC(=O)c2ccco2)sc2c1CCC(C(C)(C)C)C2 (configuration not stated) 2.24 µM [inhibitor, full curve]
COc1cccc(Cn2c(=O)n(Cc3ccco3)c(=O)c3oc4ccccc4c32)c1 2 µM [inhibitor, full curve, poor fit]
COc1ccccc1-c1cc(-c2cccnc2)c2cncn2c1 12.6 µM [inhibitor, full curve, poor fit]
CCOc1ccc(/C=C/c2nc(C#N)c(N3CCCCC3)o2)cc1 39.8 µM [inhibitor, single point]
CCCN(CCC)CCNC(=O)CN1C(=O)COc2ccc(S(=O)(=O)N3CCC(C)CC3)cc21 5.01 µM [inhibitor, single point]
COc1cccc(-c2ccccc2NC(=O)C2CCN(Cc3cc(F)ccc3F)CC2)c1 25.1 µM [inhibitor, partial curve, poor fit]
Cc1ccc(NC(=O)C2CCCN2S(=O)(=O)c2ccc3nc(-c4ccccc4)[nH]c3c2)cc1F (configuration not stated) 39.8 µM [inhibitor, single point]
C=CCc1ccccc1OCCN(C)Cc1cc2ccc(F)cc2[nH]c1=O 6.31 µM [inhibitor, partial curve, poor fit]

Potency, active:
O=C1c2cnc(-c3cccc(CO)c3)nc2OCCN1c1ccccc1 7.94 µM

— PubChem BioAssay AID1671194 (National Center for Advancing Translational Sciences (NCATS), 2021)
